Source: article PMC4336329 (PLoS ONE, 2015)
Hit rate of the full screen: of about 310,000 compounds, about 14,000 (4.5%) showed an effect of 50% or more. Effects have a minus sign here. Some of the results follow.

Biological target: human ether-à-go-go-related gene (hERG) potassium channel (human, UniProt Q12809)
Assay: primary screen, population patch clamp on CHO cells stably expressing hERG
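Also: peak tail current of the secondary pulse compared with the same well before compound.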

Sequence of human ether-à-go-go-related gene (hERG) potassium channel (Q12809 whole entry, looked up): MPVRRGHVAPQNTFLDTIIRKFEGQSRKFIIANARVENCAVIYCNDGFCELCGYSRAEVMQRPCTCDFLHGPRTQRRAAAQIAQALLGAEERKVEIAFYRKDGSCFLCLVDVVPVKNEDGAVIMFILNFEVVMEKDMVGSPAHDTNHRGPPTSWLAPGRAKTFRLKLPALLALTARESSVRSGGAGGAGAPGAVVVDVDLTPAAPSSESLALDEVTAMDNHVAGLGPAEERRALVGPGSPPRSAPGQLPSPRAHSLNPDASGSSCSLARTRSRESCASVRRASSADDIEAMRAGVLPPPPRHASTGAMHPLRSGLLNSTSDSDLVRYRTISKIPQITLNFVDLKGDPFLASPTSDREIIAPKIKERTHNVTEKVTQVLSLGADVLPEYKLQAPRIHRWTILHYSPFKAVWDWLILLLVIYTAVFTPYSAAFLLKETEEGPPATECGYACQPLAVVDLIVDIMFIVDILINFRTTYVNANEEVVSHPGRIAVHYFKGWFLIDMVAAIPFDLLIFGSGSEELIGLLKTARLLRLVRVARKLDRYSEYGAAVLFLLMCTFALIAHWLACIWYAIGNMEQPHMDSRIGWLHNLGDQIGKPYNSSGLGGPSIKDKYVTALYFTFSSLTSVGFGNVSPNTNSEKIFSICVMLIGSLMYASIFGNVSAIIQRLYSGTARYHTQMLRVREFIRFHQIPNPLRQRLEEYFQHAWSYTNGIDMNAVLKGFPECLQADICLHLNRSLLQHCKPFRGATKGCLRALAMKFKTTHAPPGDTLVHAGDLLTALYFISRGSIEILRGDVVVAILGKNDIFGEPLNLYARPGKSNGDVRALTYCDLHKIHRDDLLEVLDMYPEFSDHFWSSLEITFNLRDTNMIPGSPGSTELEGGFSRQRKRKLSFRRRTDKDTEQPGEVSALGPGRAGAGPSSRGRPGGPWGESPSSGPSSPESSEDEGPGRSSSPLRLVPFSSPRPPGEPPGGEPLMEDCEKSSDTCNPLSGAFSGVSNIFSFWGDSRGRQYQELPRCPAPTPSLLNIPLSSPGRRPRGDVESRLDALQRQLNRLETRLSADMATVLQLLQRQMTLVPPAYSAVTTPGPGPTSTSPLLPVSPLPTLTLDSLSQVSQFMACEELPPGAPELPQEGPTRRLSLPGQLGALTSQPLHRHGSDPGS

Structure (SMILES)	hERG current change (%, negative = inhibition) at 10uM [%]
O=C(O)c1ccc(Oc2ccc(C(F)(F)F)cn2)cc1	17.5
CCOc1ccc(S(=O)(=O)N2CCN(C(=S)NCc3ccco3)CC2)cc1	-32.4
O=[N+]([O-])c1cccc(/C([O-])=C(/C(=S)Nc2ccccc2)[n+]2ccccc2)c1	-12.4
Cc1nc(SCCC(=O)O)c2cc(-c3ccccc3)sc2n1	5.56
Fc1ccc(N=Cc2ccc[nH]2)cc1	13.9
Cc1ccc(S(=O)(=O)N2c3ccccc3CC2C)cc1 (centres unmarked)	13.4
Cc1cccc(CCNS(=O)(=O)c2cc3c(cc2C)NC(=O)CO3)c1	-34.4
OC1(C#CCN2CCOCC2)CCCCC1	15.4
Cc1ccsc1C(=O)OCC(=O)NC1CCS(=O)(=O)C1 (centres unmarked)	9.74
Cc1nn(S(=O)(=O)c2ccc(C(C)C)cc2)c(C)c1S(=O)(=O)N1CCOCC1	5.24
O=C(Nc1ccc(Cl)cn1)c1ccccc1[N+](=O)[O-]	-6.4
Oc1ccc(C[C@@H]2CNC(=S)N2CCc2cc(C(F)(F)F)cc(C(F)(F)F)c2)cc1	2.28
CCCCn1c(=S)[nH]c2ccc(N3CCOCC3)cc2c1=O	6.93
COCCCNC(=O)CSC1=Nc2ccccc2C2=NC(c3ccccc3)C(=O)N12 (centres unmarked)	-22.2
O=C(N/N=C/c1cccs1)c1cccc(NC(=O)c2ccccc2Cl)c1	-11.2
Cc1nc2c(C)cccn2c1/C(O)=C1\C(=O)C(=O)N(CCN2CCOCC2)C1c1cccs1 (centres unmarked)	11.6
CCN(CC)c1ccc(NC(=O)CSc2nc3ccccc3c(=O)n2-c2cc(S(=O)(=O)N(C)C)ccc2C)cc1	2.52
C=C(C)C1Cc2nc(N)nc(C)c2C1 (centres unmarked)	10.8
CC(=O)N(CC1CCCO1)C1(C(=O)NC2CCCC2)CCCCC1 (centres unmarked)	7.61
Cc1cc(NC(=O)CSCCO)no1	8.03

Structure (SMILES)	hERG current change (%, negative = inhibition) at 10uM [%]
O=C(NC12CC3CC(CC(C3)C1)C2)C1CC(=O)N(c2ccccc2)C1 (centres unmarked)	4.54
CSc1ccccc1C(=O)Nc1cccc([N+](=O)[O-])c1C	-18.6
O=C(COC(=O)c1ccco1)NCc1ccco1	13
Cc1cc(SCC(=O)c2cc3ccccc3o2)nc2ccccc12	20.1
Cc1ccc(NC(=O)CCC(=O)c2cccs2)c(O)c1	6.76
COc1ccccc1-c1cn(-c2ccccc2)c(=S)[nH]1	10.9
CC(C)CC(OC(=O)c1ccco1)C(=O)NC1CCCCC1 (centres unmarked)	-2.33
CCOc1ccc(/C=N/N(C)c2ccccc2)cc1OC	15.8
O=C(NCc1ccccc1F)C1CCN(C(=O)Nc2ccc(F)cc2)CC1	0.784
CN(C)/N=C1\CCS(=O)(=O)c2sccc21	3.93
COc1ccc(S(=O)(=O)N2CCCOC2CNC(=O)C(=O)NCc2ccccn2)cc1 (centres unmarked)	-1.08
O=C(Cc1ccc(S(=O)(=O)N2CCOCC2)s1)Nc1ccccc1Br	6.02
CCOc1cccc(C(c2c(C)n(C)n(-c3ccccc3)c2=O)c2c(C)n(C)n(-c3ccccc3)c2=O)c1OC	19.3
CC(C)CCOC(=O)C(C)Sc1n[nH]c(=O)[nH]c1=O (centres unmarked)	-2.03
COC(=O)c1sc(NC(=O)c2c(F)cccc2F)c(C#N)c1C	8.78
COC(=O)CCN1CCN(S(=O)(=O)c2ccc3c(c2)OCCO3)CC1	12.9
Cc1ccc(-c2nn(-c3ccccc3)cc2CO)cc1	-0.727
CCCOC(=O)NC(CC)COC(=O)Nc1cccc(C)c1C (centres unmarked)	0.265
O=C(O)c1ccc(S(=O)(=O)N2CCc3ccccc3C2)cc1	20.1
O=C(O)c1ccc(CSCc2c(F)cccc2Cl)o1	0.513

Structure (SMILES)	hERG current change (%, negative = inhibition) at 10uM [%]
Cc1cccc2c(C(=O)Nn3cnnc3)cc(-c3ccccc3Cl)nc12	25.8
Oc1ccccc1/C=N/Nc1nc2ccccc2o1	7.33
CCOC(=O)CNC(=O)CSc1nc(C)cc(C)c1C#N	9.49
O=C(COc1ccc(OCc2ccccc2)cc1)NN=C1CCCC1	13.7
C=CCNC(=O)c1cnc(-c2ccccc2)nc1-c1ccccc1	16.3
COc1ccc(CCN(C(=O)c2cccc(F)c2)C2CC(=O)N(c3ccccc3)C2=O)cc1 (centres unmarked)	-38.5
O=C(O)c1ccc(/C=N/N2CCN(C3c4ccccc4-c4ccccc43)CC2)cc1	12.1
CCN(CC)S(=O)(=O)c1cccc(C(=O)N/N=C/c2ccc(OC)c(O)c2)c1	3.55
CCOC(=O)Cc1csc(NC(=O)COc2cccc(C)c2)n1	12.5
CCOC(=O)c1c(C)[nH]c(C(=O)COc2ccc3c(c2)OCO3)c1C	5.31
CCC(=O)Nc1ccc2c(c1)ncn2C	48.6
CS(=O)(=O)N(CC(=O)N1CCOCC1)c1ccc(Cl)cc1	20.7
CC(C)(C)NC(=O)NC(=O)CSc1ccc(S(=O)(=O)N2CCOCC2)cn1	-11.6
COc1ccccc1/C=N\NC(=O)c1ccc(COc2ccc(C)c(C)c2)o1	8.48
c1coc(-c2ccnc3ncnn23)c1	8.93
Nc1nc2ccccc2cc1-c1cccs1	-1.47
Cc1ccc(C)c(NC(=O)C2=CCN(S(=O)(=O)c3ccc(F)cc3)CC2)c1	11
O=C1NC(=O)N(c2ccccc2)C(=O)/C1=C\c1ccc([N+](=O)[O-])s1	0.575
COc1cccc(N2CCN(c3ccc4nnc(CCC(=O)Nc5ccc(F)cc5)n4n3)CC2)c1	0.895
